Out of some 390,000 compounds screened, about 930 (0.24%) were called active. Inconclusive results, whose numbers are uncertain, are shown with a selection of clear calls. Calls come from the whole dose curve; as a rule, active = well fitted activation curve with a large enough effect; inconclusive = small, poorly fitted or top-dose-only effect; inactive = no such curve, though single readings can be large or run the other way. Where the call is inconclusive, the potency comes from a doubtful curve fit.
Assay: qHTS for Suppressors of FUS Proteinopathy: Primary screen using FUS-linked yeast assay; note: nearly all actives have a fitted effect of over 55% in size;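 for growth rescue (activation): plate controls were DMSO vehicle for no effect and reference control for full effect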
Conditions: S. cerevisiae FUS-expressing, OD600, 24 h; Potency: growth rescue; growth rescue (activation): at 76.6 µM (top of the series)
Method in brief: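 Yeast FUS proteinopathy model; galactose-induced FUS (2%), starting OD 0.005. Cpds in dilution series, 24hr, 30C, 99% humidity. Abs 600 nm growth. Pos ctrl CP55940 (top 92uM final); neg ctrl DMSO.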
Potency is the fitted concentration of half-maximal effect; tags give direction and shape of the fitted curve.

Row | SMILES | Potency | growth rescue (activation)
1 | COc1ccc(N2CCN(C(=O)CSc3c4c(nc5ccc(Cl)cc35)CCCC4)CC2)cc1 | inconclusive: 31.6 µM [activator, partial curve, poor fit] | 
2 | COc1ccccc1-n1c(SCC(=O)Nc2ccc3c(c2)OCO3)nc2c(c1=O)SCC2 | inconclusive: 10 µM [activator, partial curve, poor fit] | 
3 | CC(C)n1cnc2c(NCc3ccccc3)cc(Cc3ccc(F)cc3)cc21 | inconclusive: 50.1 µM [activator, single point] | 
4 | Cc1cccc(N2CCN(S(=O)(=O)c3ccc4c(c3)C(C(C)C)C(=O)N4)CC2)c1C (centres undefined) | inconclusive: 50.1 µM [activator, single point] | 
5 | CC[C@@H](CCCCCC#N)CCC(=O)N(c1ccccc1)c1ccccc1 |  | inactive: 34.4%
6 | CCOC(=O)C1=C[C@@H](C(C)(C)C)N(S(=O)(=O)c2ccc(C)cc2)[C@H]1c1cccc2ccccc12 | inconclusive: 15.8 µM [activator, partial curve] | 
7 | NC(=S)Nc1cccc(Cl)c1 |  | inactive: -0.12%
8 | Cc1cc(C(=O)Nc2ccc(Cl)c(Cl)c2)n(-c2ccccc2)n1 | inconclusive: 25.1 µM [activator, single point] | 
9 | CCCc1cc(N2CCN(c3ccccc3)CC2)n2cnnc2n1 |  | inactive: 21.1%
10 | O=S(=O)(c1ccccc1)c1nc(-c2cccs2)oc1NCC1CCCO1 (centres undefined) |  | inactive: -11.1%
11 | CCc1ccccc1NCc1nnc2n1CCCCC2 |  | inactive: 20.4%
12 | C=CCNC(=O)c1ccc(CSc2nc3ccccc3s2)cc1 |  | inactive: -5.37%
13 | O=C(Nc1ccc2ccccc2c1)C(C1CC1)n1c(=O)c(-c2cc3ccccc3[nH]2)nc2ccccc21 (centres undefined) |  | inactive: 27.9%
14 | CC(OC(=O)CCc1c[nH]c2ccccc12)C(=O)c1ccccc1 (centres undefined) |  | inactive: 18.9%
15 | CN(C)c1ccc(/C=C/c2nc3ccccc3c(=O)n2CCO)cc1 |  | inactive: 25.3%
16 | CO[C@H]([C@H](C)/C=C/N(C)C=O)[C@@H](C)C(=O)CC[C@H](C)[C@H](O)[C@H](C)[C@H]1OC(=O)/C=C/C(C)=C/C[C@H](O)C[C@@H]2C=CC[C@@H](C[C@H](OC)[C@@]3(CO3)[C@@H](OC)C[C@@H](OC)[C@@H]1C)O2 | inconclusive: 10 µM [activator, full curve] | 
17 | N#Cc1ccc(-c2nc3ccc(Cl)cn3c2Cc2ccccc2C(F)(F)F)cc1 | inconclusive: 39.8 µM [activator, single point] | 
18 | COc1ccccc1NS(=O)(=O)c1ccc(Cl)c(NC(=O)C(C)N2C(=O)c3ccccc3C2=O)c1 (centres undefined) | inconclusive: 25.1 µM [activator, single point] | 
19 | COc1ccc(-n2nc(C(=O)NCC(=O)NCC3COc4ccccc4O3)c3ccccc3c2=O)cc1OC (centres undefined) | active: 17.8 µM | 
